Results from paper PMC4336329 (PLoS ONE, 2015).
In all, about 310,000 compounds went through this assay and about 2,200 (0.71%) showed an effect of 50% or more. The effect is printed as a negative number. The list shows a part of the results.

These molecules were tested against human ether-à-go-go-related gene (hERG) potassium channel (human, UniProt Q12809) (assay: primary screen, population patch clamp on CHO cells stably expressing hERG).
Chain of human ether-à-go-go-related gene (hERG) potassium channel (Q12809 whole entry, looked up): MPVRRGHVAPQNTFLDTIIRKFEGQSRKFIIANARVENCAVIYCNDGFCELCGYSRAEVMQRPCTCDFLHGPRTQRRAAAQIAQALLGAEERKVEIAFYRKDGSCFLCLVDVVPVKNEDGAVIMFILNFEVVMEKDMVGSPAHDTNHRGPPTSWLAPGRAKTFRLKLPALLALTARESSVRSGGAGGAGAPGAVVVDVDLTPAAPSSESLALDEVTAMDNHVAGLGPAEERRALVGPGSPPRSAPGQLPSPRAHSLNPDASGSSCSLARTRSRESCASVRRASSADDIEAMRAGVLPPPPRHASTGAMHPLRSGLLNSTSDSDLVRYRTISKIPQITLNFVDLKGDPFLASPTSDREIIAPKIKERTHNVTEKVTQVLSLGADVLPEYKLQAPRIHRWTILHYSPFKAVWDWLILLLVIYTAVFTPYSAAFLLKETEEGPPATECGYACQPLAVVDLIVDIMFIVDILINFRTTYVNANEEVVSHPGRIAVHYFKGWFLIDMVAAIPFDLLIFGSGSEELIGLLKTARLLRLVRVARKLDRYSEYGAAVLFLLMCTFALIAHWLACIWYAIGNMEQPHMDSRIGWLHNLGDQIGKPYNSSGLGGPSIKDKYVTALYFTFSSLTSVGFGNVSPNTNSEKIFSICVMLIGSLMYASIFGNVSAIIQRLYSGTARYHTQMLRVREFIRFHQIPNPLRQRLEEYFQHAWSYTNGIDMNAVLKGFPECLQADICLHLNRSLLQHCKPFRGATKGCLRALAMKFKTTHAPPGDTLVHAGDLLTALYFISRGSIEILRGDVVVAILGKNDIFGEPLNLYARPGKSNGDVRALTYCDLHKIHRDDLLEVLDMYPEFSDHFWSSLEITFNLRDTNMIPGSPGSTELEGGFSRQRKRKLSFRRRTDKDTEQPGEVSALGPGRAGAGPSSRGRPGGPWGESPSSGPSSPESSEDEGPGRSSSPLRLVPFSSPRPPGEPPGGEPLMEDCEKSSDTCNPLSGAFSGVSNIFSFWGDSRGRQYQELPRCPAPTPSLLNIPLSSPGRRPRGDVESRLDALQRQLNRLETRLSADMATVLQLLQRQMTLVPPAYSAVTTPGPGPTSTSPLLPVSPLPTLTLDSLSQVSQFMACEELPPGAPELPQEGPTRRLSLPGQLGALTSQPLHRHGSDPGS
Cc1ccc(N2C(=O)c3ccccc3C2Nc2ccc(S(=O)(=O)N3CCCCC3)cc2)nc1 (stereo not shown) was tested, and the “hERG current change (%, negative = inhibition) at 1uM” value was 13.1%.
With NNC(=O)c1snnc1-c1ccccc1 the “hERG current change (%, negative = inhibition) at 1uM” value was 13.6%.
CCOc1ccccc1NC(=O)CNC(=O)N1CC(=O)Nc2ccccc21 was tested, and the “hERG current change (%, negative = inhibition) at 1uM” value was 17.3%.
For S=C(NCCc1ccc(Cl)cc1)Nc1ccc(Cl)cc1Cl, the “hERG current change (%, negative = inhibition) at 1uM” value was 7.2%.
In the case of N=C1/C(=C\c2coc3ccccc3c2=O)C(=O)N=C2SC=CN12, the “hERG current change (%, negative = inhibition) at 1uM” value is reported as 15.6%.
With Cc1nc(-c2nnc(-c3ccccc3)o2)c(C(F)(F)F)o1 the “hERG current change (%, negative = inhibition) at 1uM” value was 8.84%.
In the case of CCSc1nnc(NC(=O)C2CCCN(S(=O)(=O)c3cnc[nH]3)C2)s1 (stereo not shown), the “hERG current change (%, negative = inhibition) at 1uM” value is reported as 1.88%.
With Cc1ccccc1CC(=O)N1CCN(C(=O)C2CCCO2)CC1 (stereo not shown) the “hERG current change (%, negative = inhibition) at 1uM” value was 19.4%.
With COc1ccc(C2=NS(=O)(=O)N(C)C(C(=O)NCc3ccc(F)cc3)=C2)cc1OC the “hERG current change (%, negative = inhibition) at 1uM” value was -18.2%.
With COc1ccc(OC)c(S(=O)(=O)NC(N)=NCCc2ccccc2)c1 the “hERG current change (%, negative = inhibition) at 1uM” value was 8.34%.
With CC(=O)N1c2ccc(S(=O)(=O)N3CCCCC3)cc2CC1C(=O)NCc1cccc(Cl)c1 (stereo not shown) the “hERG current change (%, negative = inhibition) at 1uM” value was 3.27%.
In the case of CC1CCC2(CC1)NC(=O)N(CC(=O)c1ccc[nH]1)C2=O (stereo not shown), the “hERG current change (%, negative = inhibition) at 1uM” value is reported as 1.31%.
In the case of O=C(NC(=S)Nc1cccc2ncccc12)c1ccco1, the “hERG current change (%, negative = inhibition) at 1uM” value is reported as 13.5%.
With COc1ccc(NC(=O)/C(=C/c2cccs2)NC(=O)c2ccco2)cc1 the “hERG current change (%, negative = inhibition) at 1uM” value was 0.505%.
For COc1cccc(CN(C)CC(=O)Nc2sc3c(c2C#N)CCC3)c1, the “hERG current change (%, negative = inhibition) at 1uM” value was 6.42%.
In the case of CC1CC(C)CN(S(=O)(=O)N2CCCC(C(=O)NCc3ccccc3Cl)C2)C1 (stereo not shown), the “hERG current change (%, negative = inhibition) at 1uM” value is reported as 8%.
With O=C(OCc1cnc(Cl)s1)c1c(F)cccc1F the “hERG current change (%, negative = inhibition) at 1uM” value was 11%.
In the case of CC(SC1=NCCS1)C(=O)Nc1nnc(-c2ccc(Br)cc2)s1 (stereo not shown), the “hERG current change (%, negative = inhibition) at 1uM” value is reported as -13.5%.
With CC(C)c1ccc(C(=O)NCCCNC(=O)c2cnccn2)cc1 the “hERG current change (%, negative = inhibition) at 1uM” value was 7.05%.
Cc1ccc(NC(=O)CC2Oc3ccc(C)cc3NC2=O)c(C)c1 (stereo not shown) was tested, and the “hERG current change (%, negative = inhibition) at 1uM” value was 14.3%.
COc1ccc(CCNC(=O)Nc2cccs2)c(OC)c1 was tested, and the “hERG current change (%, negative = inhibition) at 1uM” value was 17.2%.
COc1ccccc1C(=O)Nc1ccnn1C1CCN(C(=O)c2ccoc2C)CC1 was tested, and the “hERG current change (%, negative = inhibition) at 1uM” value was -7.86%.
Cc1ccc(CNC(=O)C(C(=O)NCc2ccc(C)o2)c2ncc(C(F)(F)F)cc2Cl)o1 was tested, and the “hERG current change (%, negative = inhibition) at 1uM” value was 14.6%.
With CCCc1nc2ccccc2n1CCOc1ccccc1 the “hERG current change (%, negative = inhibition) at 1uM” value was 1.02%.
For CCCCCCN=C(C)c1c(O)n(Cc2ccccc2)c(=O)[nH]c1=O, the “hERG current change (%, negative = inhibition) at 1uM” value was -0.034%.
